For 23 sequences, binding signal results are on record in paper PMC7819943, “Rice protein-binding microarrays: a tool to detect cis-acting elements near promoter regions in rice”.

Some of the results follow.

In the assay the target is T1, OsWOX13 (Oryza sativa, UniProt Q5QMM3 1-267).
T1 sequence: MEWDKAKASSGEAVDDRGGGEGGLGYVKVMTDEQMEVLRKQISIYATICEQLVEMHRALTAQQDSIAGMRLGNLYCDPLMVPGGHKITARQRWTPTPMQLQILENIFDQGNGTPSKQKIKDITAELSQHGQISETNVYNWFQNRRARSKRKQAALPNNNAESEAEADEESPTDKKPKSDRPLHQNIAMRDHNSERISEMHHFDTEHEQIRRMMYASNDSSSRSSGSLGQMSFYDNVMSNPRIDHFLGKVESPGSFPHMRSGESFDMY
In words: protein-binding microarray (RPBM); PBS, 2% BSA, 51.3 ng/ul salmon testes DNA, 50 uM zinc acetate, 200 nM TF, 25 C, 1 h; high values mean tight binding. Conditions: protein: recombinant; tags: N-terminal polyhistidine and DsRed monomer fusion (pET32a); label: CyDye5-dUTP incorporated in the synthesized complementary strand; 3' TTTTT single-stranded linker to array surface; dsDNA, one strand shown. The procedure, abridged: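 Binding signal here means per-feature fluorescence intensity in arbitrary units. The values were read on an Axon 4000B scanner after a custom Agilent array, double-stranded by primer extension with Cy5-dUTP, was incubated with 200 nM protein at 25 °C for 1 h in PBS with 2% BSA, salmon testes DNA and 50 µM zinc acetate, then washed. The proteins were transcription factors with an N-terminal polyhistidine tag and DsRed, expressed in E. coli BL21-CodonPlus and purified on Ni–NTA.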
Turning to “ATCTTAATTATATTGGATGACCTCCTTCAGTCATCCCGACCGGAGTCACCTAGTGCAG”, the binding signal is 31900 fluorescence intensity (a.u.).

For “AGTGAGATTTAAACTGTCCTTGCTATACGGACTAACTGTTCGGAGTCACCTAGTGCAG”, the binding signal was 3820 fluorescence intensity (a.u.).

For the sequence “TTGATTAAAATCCAGAGAAATTAATTAAGCCAAGCAAGTGCGGAGTCACCTAGTGCAG”, the binding signal was 25900 fluorescence intensity (a.u.).

Consider “TCCTAACATTGATGGAGTAATAGATTACTTTTAAATTAATCGGAGTCACCTAGTGCAG”, for which the binding signal is 4270 fluorescence intensity (a.u.).

With “CTAAATTTGTACAGGTGTATCATCAACATCCATAAACTTTCGGAGTCACCTAGTGCAG”, the binding signal was 13200 fluorescence intensity (a.u.).

As for “AAAATAATTAATTTTCGGGATGTTATATATTTATAACATCCGGAGTCACCTAGTGCAG”, the binding signal is 25100 fluorescence intensity (a.u.).

“GAGAAGATTATTGGATTATAGTAATCTGGCTTATAGATTACGGAGTCACCTAGTGCAG”: the binding signal was 4720 fluorescence intensity (a.u.).

For “AATAATAATCTAATGAAGATAAATAATCACAGTATATCATCGGAGTCACCTAGTGCAG”, the binding signal was 5510 fluorescence intensity (a.u.).

As to “ACTATACAATTAATGCATGATCCCACCTATCATACACACACGGAGTCACCTAGTGCAG”, the binding signal is 4900 fluorescence intensity (a.u.).

Turning to “TTTTGAAGATTTAATTGCAATGAATTTAATGGTGTAATCGCGGAGTCACCTAGTGCAG”, the binding signal is 17700 fluorescence intensity (a.u.).

Turning to “GTAGTCAATTGAACCATAATACAATCAAGATATCAGATCACGGAGTCACCTAGTGCAG”, the binding signal is 4340 fluorescence intensity (a.u.).

Turning to “CGCTACTAATTAAGCGAAGGTGTGTCACACCCTCACACGTCGGAGTCACCTAGTGCAG”, the binding signal was 6040 fluorescence intensity (a.u.).

As to “AGTAATTTTCTAGTTTCTCACCATGGTTCACTAGTTCATCCGGAGTCACCTAGTGCAG”, the binding signal is 4310 fluorescence intensity (a.u.).

In the case of “AAATGAATTAAATGAGATTTAATTTAGACCCAAATGGACACGGAGTCACCTAGTGCAG”, the binding signal was 14600 fluorescence intensity (a.u.).

“AGCTACATTGACAGGGTGTCCTGACATTCTCTGGATAATACGGAGTCACCTAGTGCAG”: the binding signal was 5480 fluorescence intensity (a.u.).

In the case of “AAAATAAACATATTATCATAATATATTTAATGCTAAATTTCGGAGTCACCTAGTGCAG”, the binding signal is 3740 fluorescence intensity (a.u.).

Turning to “GTGATTTTCCTTTCTAATCATGGTTTGGCCCATTCCATGCCGGAGTCACCTAGTGCAG”, the binding signal is 6570 fluorescence intensity (a.u.).

Regarding “TATAATTATTATTTATTTTATTTTAACTTACTTTATTATCCGGAGTCACCTAGTGCAG”, the binding signal is 4290 fluorescence intensity (a.u.).

Regarding “GTCGATGTGATTTGGTTCTGAATCAAGGGAATTTCATAGGCGGAGTCACCTAGTGCAG”, the binding signal is 10100 fluorescence intensity (a.u.).

With “GATAATTGAGGGATTATTTTATGGATATACTAGATCTGCACGGAGTCACCTAGTGCAG”, the binding signal was 52400 fluorescence intensity (a.u.).

As for “AAGAGAAGATGGAGATTGCAATCACATCTGTGGACGATGACGGAGTCACCTAGTGCAG”, the binding signal was 13100 fluorescence intensity (a.u.).

For the sequence “TCTAAGATTGTCACTTTTGAGTATTACATGCTAAGATTGTCGGAGTCACCTAGTGCAG”, the binding signal was 3520 fluorescence intensity (a.u.).

Take “AATAACAAACAAATTTAACCGTAAATTACGTGTTCTTTTCCGGAGTCACCTAGTGCAG”: the binding signal is 7670 fluorescence intensity (a.u.).
